This is an account of results in paper PMC11231238, “SPRING licenses S1P-mediated cleavage of SREBP2 by displacing an inhibitory pro-domain” (Nature Communications, 2024).

For assay [1], the target named is T1, S1P_(ecto)^P317A (FLAG-S1P_(ecto)-His10 background) (human) (UniProt Q14703).
T1 sequence: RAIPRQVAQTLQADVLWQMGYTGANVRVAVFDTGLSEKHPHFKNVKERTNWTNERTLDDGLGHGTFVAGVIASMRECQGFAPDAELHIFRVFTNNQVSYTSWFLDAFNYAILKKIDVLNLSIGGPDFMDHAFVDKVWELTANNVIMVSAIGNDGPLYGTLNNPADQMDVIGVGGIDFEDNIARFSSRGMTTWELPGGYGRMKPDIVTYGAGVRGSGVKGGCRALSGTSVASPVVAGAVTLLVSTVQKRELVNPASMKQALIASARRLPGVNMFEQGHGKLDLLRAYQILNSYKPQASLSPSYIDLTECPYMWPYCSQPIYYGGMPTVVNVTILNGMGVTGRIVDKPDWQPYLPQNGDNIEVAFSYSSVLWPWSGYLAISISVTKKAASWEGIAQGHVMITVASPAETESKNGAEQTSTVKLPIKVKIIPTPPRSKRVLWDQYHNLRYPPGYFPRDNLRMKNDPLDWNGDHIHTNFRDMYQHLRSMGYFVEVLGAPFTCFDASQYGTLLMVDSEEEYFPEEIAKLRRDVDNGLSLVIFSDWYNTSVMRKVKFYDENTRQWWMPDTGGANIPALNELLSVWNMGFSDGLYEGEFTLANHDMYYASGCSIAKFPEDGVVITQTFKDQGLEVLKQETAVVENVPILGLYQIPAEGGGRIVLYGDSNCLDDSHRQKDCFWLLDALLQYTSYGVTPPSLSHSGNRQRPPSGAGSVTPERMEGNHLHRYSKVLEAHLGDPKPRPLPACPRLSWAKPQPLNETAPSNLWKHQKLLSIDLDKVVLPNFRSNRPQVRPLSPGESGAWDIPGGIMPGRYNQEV
Briefly: pull-down; HEK 293T supernatants of co-transfected cells with 50 mM imidazole; NiNTA resin holds the His10 tag of S1P_(ecto), 1-2 h at 4 °C; washes in 150 mM NaCl, 50 mM HEPES-NaOH pH 7.5, 50 mM imidazole; elution with 300 mM imidazole; immunoblot anti-HA, anti-His, anti-FLAG. Background: A western blot detects proteins with antibodies after separation by electrophoresis.

The target in assay [2] is T2, S1P_(ecto)^W556A (FLAG-S1P_(ecto)-His10 background) (human) (UniProt Q14703).
T2 sequence: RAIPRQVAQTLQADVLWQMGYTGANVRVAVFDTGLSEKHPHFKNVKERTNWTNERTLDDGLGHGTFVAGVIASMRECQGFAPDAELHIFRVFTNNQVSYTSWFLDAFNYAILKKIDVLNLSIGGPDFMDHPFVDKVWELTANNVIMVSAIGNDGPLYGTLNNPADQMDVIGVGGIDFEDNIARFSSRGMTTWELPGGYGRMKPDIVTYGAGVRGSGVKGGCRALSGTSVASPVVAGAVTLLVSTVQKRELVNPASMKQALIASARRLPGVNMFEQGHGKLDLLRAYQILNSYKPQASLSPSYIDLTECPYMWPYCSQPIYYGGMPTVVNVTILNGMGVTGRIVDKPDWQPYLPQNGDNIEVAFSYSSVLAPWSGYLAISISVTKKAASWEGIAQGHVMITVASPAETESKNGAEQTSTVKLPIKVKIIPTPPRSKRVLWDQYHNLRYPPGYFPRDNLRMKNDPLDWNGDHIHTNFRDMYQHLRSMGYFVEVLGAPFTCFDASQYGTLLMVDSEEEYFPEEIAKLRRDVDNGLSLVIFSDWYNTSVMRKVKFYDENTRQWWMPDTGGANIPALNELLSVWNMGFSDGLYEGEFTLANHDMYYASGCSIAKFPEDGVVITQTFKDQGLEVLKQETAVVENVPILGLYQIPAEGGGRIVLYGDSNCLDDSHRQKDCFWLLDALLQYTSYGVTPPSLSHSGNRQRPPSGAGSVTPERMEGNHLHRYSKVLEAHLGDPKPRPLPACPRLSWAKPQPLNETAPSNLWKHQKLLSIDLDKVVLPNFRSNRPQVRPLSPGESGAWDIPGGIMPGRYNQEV
The description is as above.

These are yes or no findings as the source states them, for the method shown. In cells and extracts the contact can be indirect. Sequences can lack the tags named with a protein.

B1: SPRING_(ecto)^R95A (HA-tagged) (domain or fragment, UniProt Q9H741 36-205)
chain: KQEERAVRDRNLLQVHDHNQPIPWKVQFNLGNSSRPSNQCRNSIQGKHLITDELGYVCEAKDLLVNGCCNVNVPSTKQYCCDGCWPNGCCSAYEYCVSCCLQPNKQLLLERFLNRAAVAFQNLFMAVEDHFELCLAKCRTSSQSVQHENTYRDPIAKYCYGESPPELFPA
Turning to B1, the binding result in assay [1] was “no binding”.

B2: SPRING_(ecto)^V180A (HA-tagged) (domain or fragment, UniProt Q9H741 36-205)
chain: KQEERAVRDRNLLQVHDHNQPIPWKVQFNLGNSSRPSNQCRNSIQGKHLITDELGYVCERKDLLVNGCCNVNVPSTKQYCCDGCWPNGCCSAYEYCVSCCLQPNKQLLLERFLNRAAVAFQNLFMAVEDHFELCLAKCRTSSQSAQHENTYRDPIAKYCYGESPPELFPA
On to B2, for which the binding result in assay [2] is reported as “no binding”.
